# In all, about 52,000 compounds went through this assay and about 1,700 (3.3%) were called active. No stated cut-off is given here; in the data, active means survival mostly below about 52% (no sharp cut-off); inactive means mostly above about 56%. Some of the results follow.
# System: Wild type
# Experiment: growth inhibition of S. aureus wild type versus tarO mutant, primary screen, teichoic acid synthesis inhibitors, RN4220, OD600 (AID 463173)
# Conditions: S. aureus RN4220 wild type/DeltatarO growth, OD600, 18 h, stronger effect = lower value, screened at 18.75 µg/mL (by protocol)
row,SMILES,survival
1,COc1ccc(OC)c2sc(N3CCN(C(=O)C4CC4)CC3)nc12,active: -6%
2,COc1ccc(OC)c(-n2cnc3cc(C(=O)NC4CCCCCC4)ccc32)c1,inactive: 72%
3,CCOc1ccc(NC(=O)CC2C(=O)OCCN2CC)cc1 (configuration not stated),inactive: 59%
4,COc1ccccc1NC(=O)c1cnc(SCC(=O)N2CCCc3ccccc32)n(C)c1=O,inactive: 81%
5,COc1cc(NC(=O)c2ccccc2)c(OC)cc1NC(=O)CN1CCCCC1,inactive: 109%
6,COc1ccc(N2CCN(C(=O)c3cc4ccc5cccnc5c4[nH]3)CC2)cc1,inactive: 88%
7,COc1ccc(-c2cc(C)nc3c(-c4ccc(OC)c(OC)c4)c(C)nn23)cc1,inactive: 65%
8,CSc1ccc(-c2nc3ccc(C)cn3c2Nc2ccccc2C)cc1,inactive: 114%
9,Cc1cccc(-c2nnn3c2nc(NCCc2ccc(S(N)(=O)=O)cc2)c2cc(Cl)ccc23)c1,inactive: 89%
10,CS(=O)(=O)N(CC(=O)NCCc1ccccc1)c1cc(C(F)(F)F)ccc1Cl,inactive: 79%
11,N#Cc1cn(CC(=O)NCc2ccccc2)c2ccccc12,inactive: 110%
12,Cc1cccc(Oc2nc3c(c(=O)n(C)c(=O)n3C)n2C)c1,inactive: 129%
13,CCCCCn1c(=O)[nH]c2cc(C(=O)N3CCN(c4cccc(C)c4)C(C)C3)ccc2c1=O (configuration not stated),inactive: 59%
14,CCOC(=O)/C(C#N)=N\Nc1cc(C)cc(C)c1,inactive: 97%
15,O=C(NCC12CC3CC(CC(C3)C1)C2)c1cc2nc(-c3ccccc3)cc(C(F)(F)F)n2n1,active: -12%
16,CC(NC(=O)c1ccccc1NC(=O)c1nsc2ccccc12)c1ccccc1 (configuration not stated),inactive: 133%
17,Fc1cc(Br)ccc1Nc1c2c(nc3nc(-c4cccs4)nn13)CCCC2,active: 0%
18,CNC(=O)c1cc(Nc2nnc(-c3ccc(O)cc3)c3ccccc23)ccc1OC,inactive: 132%
19,O=C1CCCc2cc(S(=O)(=O)NCC3CCC(C(=O)Nc4ccccc4F)CC3)ccc2N1 (configuration not stated),inactive: 78%

row,SMILES,survival
1,COc1ccc(OC)c(CCNc2ncnc3onc(-c4ccc(F)cc4)c23)c1,inactive: 119%
2,COC(=O)c1ccc(OC)c(Cn2c(=O)n(Cc3ccccc3)c(=O)c3c2c2cc(OC)ccc2n3C)c1,inactive: 66%
3,COc1ccc(CN2C(=O)C(C)Oc3ccccc32)cc1 (configuration not stated),inactive: 103%
4,CC1CCCC(C)N1C(=O)CSc1nc(N)c(-c2ccccc2)c(=O)[nH]1 (configuration not stated),inactive: 113%
5,CCCCOc1ccc(C(=O)N2CCN(CCc3ccccn3)CC2)cc1,inactive: 88%
6,CC(=O)c1ccc(NC(=O)C2=CC(c3ccc4c(c3)OCO4)=NS(=O)(=O)N2C)cc1,inactive: 107%
7,O=C(CN1CCC(O)(c2ccccc2)CC1)NC1CCCCC1,inactive: 111%
8,COc1ccc(-c2noc(CCC(=O)NCc3ccc(C)cc3)n2)cc1,inactive: 94%
9,O=c1n(Cc2cccc(C(F)(F)F)c2)c2ccccc2c2nc(-c3ccccc3)nn12,inactive: 86%
10,Cc1ccc(-c2ccc(CCC(=O)O)n2-c2cccc(O)c2)cc1,inactive: 86%
11,COc1ccc(-c2ccc(=O)n(CC(=O)Nc3ccc(C)cc3C)n2)cc1,inactive: 55%
12,Cc1ccc(C(=O)Nc2ccc3oc(-c4ccc(C(C)(C)C)cc4)nc3c2)cc1,inactive: 75%
13,CCCN1C(=O)C(NC(C)=O)c2cc(C)ccc21 (configuration not stated),inactive: 107%
14,Cc1ccc(CNC(=O)CCCCCn2c(=O)c3sccc3n(CC(=O)N(C)c3ccccc3)c2=O)cc1,inactive: 83%
15,CCOC(=O)c1cccc(NC(=O)Cn2ncc3c4ccccc4n(Cc4ccccc4)c3c2=O)c1,inactive: 88%
16,CCc1ccc2oc(C(=O)Nc3cccc(C(F)(F)F)c3)cc(=O)c2c1,inactive: 88%
17,CSc1nn(Cc2ccc(Cl)cc2)c(N(C(C)=O)C(C)=O)c1S(=O)(=O)c1ccccc1,inactive: 57%
18,Cc1ccc(NS(=O)(=O)c2ccc3[nH]c(=O)ccc3c2)cc1N(C)C,inactive: 53%
19,Cc1cccc(Cn2c(=O)n(CCc3ccccc3)c(=O)c3c(C)c(C)sc32)c1,inactive: 90%

row,SMILES,survival
1,Cc1ccc(NC(=O)c2cc(C)nc3c2c(C)nn3-c2cccc(Cl)c2C)c(C)c1,active: -6%
2,C#CCOc1ccc(-c2nnc(Nc3cccc(C)c3)c3ccccc23)cc1,inactive: 79%
3,CCn1cc(C(=O)NCc2ccccc2OC)c(=O)c2cc(S(=O)(=O)N3CCCCC3)ccc21,inactive: 91%
4,COc1ccccc1CN1COc2ccc3c(oc(=O)c4ccccc43)c2C1,inactive: 95%
5,CCn1c(=O)cc(SCC(=O)NCCc2ccc(Cl)cc2)c2ccccc21,inactive: 70%
6,COc1ccccc1Nc1cc(C(=O)NC2CCCC2)c2ccccc2n1,inactive: 79%
7,COc1ccc(/C=C/C(=O)Nc2sc3c(c2C(N)=O)CCCC3)cc1,inactive: 72%
8,CCOC(=O)c1cnc(NCc2ccccc2OC)c2ccccc12,inactive: 80%
9,COc1cccc2sc(=NC(=O)c3ccc(S(=O)(=O)N4CCCCC4)cc3)n(C)c12,inactive: 93%
10,COc1ccc(S(=O)(=O)N2CCCCC2)cc1C(=O)Nc1cccc(C(F)(F)F)c1,inactive: 93%
11,CCOC(=O)C1CCC(CN(Cc2ccc(Cl)cc2)S(=O)(=O)c2ccc(F)c(C(=O)Nc3cccc(F)c3)c2)CC1 (configuration not stated),inactive: 73%
12,CCN(CC)C(=O)c1sc2c(c1C)c(=O)n(Cc1ccccc1)c(=O)n2Cc1ccc(Cl)cc1,inactive: 73%
13,NS(=O)(=O)c1cccc(S(N)(=O)=O)c1,inactive: 117%
14,O=c1oc2ccccc2c(O)c1CN1CCCCC1,inactive: 73%
15,COCCNC(=O)c1cc2nc3c(c(C(F)(F)F)n2n1)CCc1ccccc1-3,inactive: 102%
16,O=C(CCS(=O)(=O)c1nc(-c2ccc3c(c2)OCO3)cc(C(F)(F)F)n1)Nc1ccccc1F,inactive: 79%
17,COc1ccc(Nc2nc3ccccc3c3nnc(C)n23)cc1Cl,inactive: 65%
18,CCOc1ccc(C(=O)Nc2ccc(S(=O)(=O)N3CCOCC3)cc2)cc1OCC,inactive: 113%
19,CCN(C(=O)CCn1cnc2onc(-c3ccc(F)cc3)c2c1=O)c1ccc(OC)cc1,inactive: 80%

# — PubChem BioAssay AID463173 (ICCB-Longwood Screening Facility, Harvard Medical School, 2010)
